# Out of some 420,000 compounds screened, about 50,000 (12%) were called active. Inconclusive results, whose numbers are uncertain, are shown with a selection of clear calls. Calls come from the whole dose curve; as a rule, active = well fitted inhibition curve with a large enough effect; inconclusive = small, poorly fitted or top-dose-only effect; inactive = flat fitted curve, though single readings scatter. No potency is given beside an inconclusive call; the fits are too rough.
# Assay: qHTS for Inhibitors of human tyrosyl-DNA phosphodiesterase 1 (TDP1): qHTS in cells in presence of CPT; note: nearly all actives have a fitted effect of over 55% in size
# Conditions: chicken DT40 Tdp1-/-;hTDP1 cells + 20 nM CPT, ATP luminescence, 48 h; activity change, negative = growth inhibition: at 46.2 µM (top of the series) unless noted
# Outline: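 Cell growth measured by CellTiter-Glo luminescence after a minimum 48 h, 37 C compound exposure with 20 nM CPT in Tdp1-knockout DT40 cells stably expressing hTDP1, seeded 400/well; qHTS titration format.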
# % is set by controls: 0 for no effect and ±100 for the full control effect; potency is the fitted concentration of half-maximal effect; tags give direction and shape of the fitted curve.
SMILES,Potency,"activity change, negative = growth inhibition"
O=Cc1ccc(OCc2cccc(C(F)(F)F)c2)cc1O,"inconclusive [inhibitor, single point]",–
COc1ccc(-c2cn3nc4c(nc3n2)CCCC4)cc1,"inconclusive [inhibitor, single point]",–
COc1ccc(Nc2nc3cc(C)ccc3cc2C#N)c(OC)c1,active: 1.16 µM,–
O=C(Nc1ccc2c(c1)OCCO2)C1CCN(C(=O)c2ccc(F)cc2)CC1,"inconclusive [inhibitor, partial curve, poor fit]",–
Cc1ccccc1-c1ncc(CN2CCC(CO)(CCCc3ccccc3)CC2)cn1,"inconclusive [inhibitor, single point]",–
CCCCn1cnc2c(sc3nc4c(cc32)CSC(C)(C)C4)c1=O,"inconclusive [inhibitor, partial curve, poor fit]",–
O=C(NCCc1nc2ccccc2n1Cc1ccccc1)c1ccco1,"inconclusive [inhibitor, single point]",–
CCOC(=O)C1=C(COC(=O)c2cc([N+](=O)[O-])ccc2Cl)NC(=O)NC1C (stereo not drawn),–,inactive: -9.74%
O=C(CSc1nnc(Cc2ccccc2)o1)N1CCCc2ccccc21,"inconclusive [inhibitor, partial curve, poor fit]",–
COc1ccc(-c2ccc(=O)n(Cc3ccccc3)n2)cc1,"inconclusive [inhibitor, single point]",–
CCCCCCNC(=O)c1c(O)c2ccccc2[nH]c1=O,"inconclusive [inhibitor, single point]",–
N#C/C(=C\c1cccc(Br)c1)C(=O)N1CCCCC1,active: 13 µM,–
CCn1c(SCC(=O)Nc2ccc(F)cc2)nnc1-c1cnccn1,–,inactive: -23.9%
CCN1C(=O)c2ccccc2S(=O)c2ccc(C(=O)NCCCN3CCCC3=O)cc21 (stereo not drawn),–,inactive: -29.1%
CC1CC(=O)Nc2ccccc2N1C(=O)CSc1ccc2ccccc2n1 (stereo not drawn),active: 16.4 µM,–
O=S(=O)(Nc1ccc(Oc2ncccn2)c(Cl)c1)c1ccc(F)cc1,"inconclusive [inhibitor, single point]",–
COc1ccccc1N1CCN(C(=O)c2ccc(Cl)c(S(=O)(=O)N3CCCC3)c2)CC1,"inconclusive [inhibitor, single point]",–
Cc1nc(-n2nc(C)c(Cc3ccc4c(c3)OCO4)c2C)sc1C(=O)Nc1cccc(Cl)c1,"inconclusive [inhibitor, single point]",–
Cc1cc(C)n(CC(=O)NCc2cc(-c3nn(C)c(=O)c4ccccc34)ccc2C)n1,"inconclusive [inhibitor, single point]",–
CC(=O)Nc1cccc(-c2nc3ccc(NC(C)=O)cc3[nH]2)c1,–,inactive: 8.68%
CCN1CCSc2ccc(C(=O)Nc3ccc(NC(C)=O)cc3)cc21,"inconclusive [inhibitor, single point]",–
Fc1ccc(CSc2nc3ncccc3[nH]2)cc1,"inconclusive [inhibitor, single point]",–
CCC1(c2ccccc2)NC(=O)N(CC(=O)Nc2cccc(S(=O)(=O)N3CCCC3)c2)C1=O (stereo not drawn),"inconclusive [inhibitor, single point]",–
S=C(NN=Cc1ccccn1)Nc1ccccn1,active: 1.46 µM,–
CCc1nn(CC(=O)Nc2cc(C)cc(C)c2)c(=O)c2cc3sccc3n12,active: 4.11 µM,–

SMILES,Potency,"activity change, negative = growth inhibition"
CCN(CC)CCNC(=O)c1cc(-c2ccc(Br)s2)nc2ccccc12,active: 18.4 µM,–
COc1ccc(N=c2oc3c(OC)cccc3cc2C(=O)NCc2ccco2)cc1OC,active: 11.6 µM,–
Cc1ccccc1OCC(=O)Nc1ccccc1-c1ccccc1NC(=O)COc1ccccc1C,"inconclusive [inhibitor, single point]",–
CC(C)C1C(=O)N(Cc2cn(CCC3OCCCO3)nn2)CCS(=O)(=O)N1Cc1ccc(-c2ccncc2)cc1 (stereo not drawn),"inconclusive [inhibitor, single point]",–
O=S(=O)(NCCCSc1ccccc1)c1ccccc1F,–,inconclusive: 0.117% [inhibitor]
Cc1ccc2c(c1)S(=O)(=O)N(C)C(c1ccccc1)=C2,active: 18.4 µM,–
Cc1cc(C)cc(NC(=O)C(Nc2ccccc2)c2ccccc2)c1 (stereo not drawn),active: 18.4 µM,–
Cc1ccc(N(CC(=O)N/N=C/c2cccc(Br)c2)S(C)(=O)=O)cc1,–,inactive: -0.162%
COc1ccccc1/C=C/c1cncc(/C=C/c2ccccc2OC)c1,"inconclusive [inhibitor, single point]",–
CC(=O)c1ccc(OCC(=O)Nc2cccc(C(=O)Nc3c(C)n(C)n(-c4ccccc4)c3=O)c2)cc1,"inconclusive [inhibitor, single point]",–
Cc1ccc(S(=O)(=O)N(C)C)cc1NC(=O)c1n[nH]c(=O)c2ccccc12,active: 18.4 µM,–
Cc1nn(CC(=O)NCCCN2CCN(Cc3ccccc3)CC2)c(=O)c2cc(-c3ccccc3)nn12,"inconclusive [inhibitor, single point]",–
CCN1CCCC1CN(Cc1cc2ccc(C)cc2[nH]c1=O)C(=S)Nc1ccc(OC)cc1OC (stereo not drawn),"inconclusive [inhibitor, partial curve]",–
CC(NC(=O)Cn1cccc1)c1ccccc1 (stereo not drawn),–,inactive: -3.84%
Nc1ccc2nc(SCC(=O)Nc3ccc(N4CCOCC4)c(Cl)c3)sc2c1,"inconclusive [inhibitor, single point]",–
Cc1ccc(CN2CCCn3nc(C(=O)NCc4ccc(OC(C)C)cc4)cc3C2=O)cc1,active: 18.4 µM,–
Cc1cc(C(=O)Nc2c(F)cc(F)cc2Br)c(C)o1,"inconclusive [inhibitor, single point]",–
O=S(=O)(c1ccccc1)N1CCN=C1SCc1cccc(Cl)c1,"inconclusive [inhibitor, single point]",–
O=Cc1ccccc1C=O,active: 9.44 µM,–
COCCN(C(=O)c1ccc(-c2ccc([N+](=O)[O-])cc2)o1)c1c(N)n(CC(C)C)c(=O)[nH]c1=O,–,inactive: -1.59%
O=C(c1cccc(S(=O)(=O)N2CCCCC2)c1)N1CCN(S(=O)(=O)c2ccc(F)cc2)CC1,"inconclusive [inhibitor, partial curve]",–
Cc1ccc(NC(=O)CSc2n[nH]c(-c3ccc(F)cc3)n2)cc1F,"inconclusive [inhibitor, single point]",–
CCOc1ccccc1NC(=O)N1CCN(C)c2ncccc21,–,inactive: -22.6%
COc1cc(-c2noc(CN3CCN(c4cccc(Cl)c4)CC3)n2)cc(OC)c1OC,active: 16.4 µM,–
CSc1cccc(NC(=O)CC(c2cccs2)N2Cc3ccccc3C2=O)c1 (stereo not drawn),active: 16.4 µM,–

SMILES,Potency,"activity change, negative = growth inhibition"
CCC(C)[C@H](NC(=O)NCCCOC(C)C)C(=O)OC (stereo partly drawn),–,inactive: 0.137%
COc1cccc(OC)c1C(=O)NCCNc1nc2cc(C)cc(C)c2cc1C#N,"inconclusive [inhibitor, single point]",–
CCOC(=O)c1cccc(NC(=O)c2ccc3nc(C(C)C)oc3c2)c1,"inconclusive [inhibitor, single point]",–
COc1ccc(-c2c(-c3ccc(S(C)(=O)=O)cc3)sc3ccc(OC)cc23)cc1,"inconclusive [inhibitor, single point]",–
O=C(Cc1cccs1)N1CCN=C1SCc1ccccc1F,–,inconclusive: 1.16% [inhibitor]
COc1cc(CNCCO)cc(Br)c1OCc1cccs1,–,inactive: -17.2%
CC(C)(C)C(=O)Nc1ccc2c(c1)C(=O)C(=O)c1ccccc1-2,active: 0.708 µM,–
O=C(c1ccco1)N1CCN(c2ncnc3scc(-c4ccccc4)c23)CC1,active: 16.4 µM,–
CSc1ccc(CCNC(=O)CCc2c(C)nc3c(c(C)nn3-c3ccc(C)c(C)c3)c2C)cc1,–,inactive: -3.58%
N#Cc1cc(C#N)c(N2CCN(c3cccc(Cl)n3)CC2)nc1N,"inconclusive [inhibitor, single point]",–
COc1ccc2nc(NC(=O)c3nc(S(=O)(=O)Cc4ccccc4)ncc3Cl)sc2c1,active: 1.03 µM,–
CCCOc1ccc(C2Nc3cccc4cccc(c34)N2)cc1,active: 20.6 µM,–
CCC(C(=O)Nc1nnc2n1CCS2)c1ccccc1 (stereo not drawn),–,inactive: -16.8%
Cc1nc2cc(C(F)(F)F)ccc2n1C1CCN(CC(=O)NC(C)(C)C)CC1,active: 18.4 µM,–
COc1ccc(OC)c(C(=O)c2c(C)oc3cc([N+](=O)[O-])c(O)c([N+](=O)[O-])c23)c1,"inconclusive [inhibitor, single point]",–
Cc1cccc(NS(=O)(=O)c2ccc(C)c(C(N)=O)c2)c1,–,inconclusive: -34.6% [inhibitor]
Cc1ccc(Nc2nc(N)c([N+](=O)[O-])c(NCc3ccco3)n2)cc1C,active: 25.9 µM,–
Cc1cc(C(=O)CN2CCC(C)CC2)c(C)n1-c1ccccc1F,"inconclusive [inhibitor, single point]",–
O=C(NCC1CCCCC1)c1ccc2sc([C@H]3C[C@H](O)[C@@H](CO)O3)nc2c1,–,inactive: -22.1%
C=CCSc1nc2ccccc2n1S(=O)(=O)c1ccc(C)cc1,–,inactive: -11.2%
Cc1cc(C)cc(-c2nnc(SCC(=O)N3CCN(C(=O)c4ccco4)CC3)o2)c1,"inconclusive [inhibitor, single point]",–
COCCN1CCN(Cc2cn(C)nc2-c2ccc(Oc3ccccc3)cc2)CC1,"inconclusive [inhibitor, single point]",–
O=c1c(C=NCCCO)c(-c2ccccc2)[nH]n1-c1nc2ccccc2s1,active: 13 µM,–

# Source: PubChem BioAssay AID686979 (National Center for Advancing Translational Sciences (NCATS), 2013)
